Experimental data as given in PubChem BioAssay AID1460 (National Center for Advancing Translational Sciences (NCATS), 2008).
The whole screen tested about 270,000 compounds, of which about 5,800 (2.1%) were called active. Inconclusive means that the source gave no clear call. Such entries were picked first, then a sample of the others. The call rests on the fitted dose curve; in most records, active means well fitted inhibition curve with a large enough effect; inconclusive means small, poorly fitted or top-dose-only effect; inactive means flat fitted curve, though single readings scatter. A potency beside an inconclusive call is a rough fit, not a confirmed value.

Molecular target: Microtubule-associated protein tau (Homo sapiens) (UniProt P10636)
Sequence of UniProt P10636 (P10636 whole entry, looked up): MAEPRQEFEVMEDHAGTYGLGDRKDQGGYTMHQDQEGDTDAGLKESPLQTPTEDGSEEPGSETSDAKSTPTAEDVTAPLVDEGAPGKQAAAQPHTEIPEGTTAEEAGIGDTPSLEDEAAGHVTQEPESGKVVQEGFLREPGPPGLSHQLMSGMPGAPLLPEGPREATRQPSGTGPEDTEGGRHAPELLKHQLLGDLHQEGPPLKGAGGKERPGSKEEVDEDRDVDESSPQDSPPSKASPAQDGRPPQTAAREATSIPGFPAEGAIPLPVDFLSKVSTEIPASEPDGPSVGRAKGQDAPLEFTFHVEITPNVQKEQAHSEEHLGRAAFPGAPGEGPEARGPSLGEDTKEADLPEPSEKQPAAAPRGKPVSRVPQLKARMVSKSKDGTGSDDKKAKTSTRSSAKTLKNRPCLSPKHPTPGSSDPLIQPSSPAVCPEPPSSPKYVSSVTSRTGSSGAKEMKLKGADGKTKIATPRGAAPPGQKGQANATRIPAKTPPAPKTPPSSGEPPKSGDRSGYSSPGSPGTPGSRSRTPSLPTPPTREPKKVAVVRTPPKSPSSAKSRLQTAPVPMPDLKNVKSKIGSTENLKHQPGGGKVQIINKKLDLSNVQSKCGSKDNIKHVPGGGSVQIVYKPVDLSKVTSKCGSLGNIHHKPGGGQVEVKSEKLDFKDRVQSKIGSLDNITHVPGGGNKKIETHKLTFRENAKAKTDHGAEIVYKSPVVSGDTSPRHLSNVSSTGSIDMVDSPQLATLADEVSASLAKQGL
Assay: qHTS for Inhibitors of Tau Fibril Formation, Thioflavin T Binding; further: nearly all actives have a fitted effect of over 55% in size
Details: recombinant tau K18 P301L (four-repeat tau fragment), heparin-induced fibrillization, ThT fluorescence; series mostly up to 57.4 µM; activity, negative = inhibition: at the top concentration
Summary of the method: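 Recombinant human tau K18 fragment […] carrying P301L, 15 uM unlabeled plus 0.24 uM Alexa 594-labeled, was fibrillized with 20 uM heparin in 100 mM sodium acetate pH 7 for 6 hr at 37 C; 30 uM ThT fluorescence read after 1 hr.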
On the % scale 0 is the no-effect control and ±100 the full control effect; potency means the concentration at half of the fitted maximal effect; tags describe the fitted curve by direction and shape.

Structure (SMILES)	activity, negative = inhibition	Potency
COC(=O)CCC(=O)Nc1sc2c(c1C#N)CCCC2	inactive: -7.55%	
CCc1ccc2oc(-c3ccc(OC)cc3)cc(=Nc3cccc(C(=O)O)c3)c2c1		inconclusive: 11.2 µM [inhibitor, partial curve]
Cc1ccc(C2c3c(oc4ccc(Cl)cc4c3=O)C(=O)N2CCCN2CCOCC2)o1 (stereo unspecified)	inactive: 7.01%	
Cc1ccc(-c2csc(NC(=O)C3=COCCO3)n2)cc1		inconclusive: 17.8 µM [inhibitor, partial curve]
N#CC(C(=O)c1ccccc1)=C1SCCS1	inactive: -4.59%	
COc1cccc(C2c3[nH]c4ccccc4c3CCN2Cc2ncc[nH]2)c1 (stereo unspecified)		inconclusive: 7.94 µM [inhibitor, full curve, poor fit]
CC(C)N(C1=N/C(=C\c2ccco2)C(=O)N1c1ccccc1)C(C)C		inconclusive: 20 µM [inhibitor, partial curve]
N#Cc1cc(-c2ccccc2)oc1/N=C/c1ccccc1O		inconclusive: 15.8 µM [inhibitor, partial curve]
COc1cc([N+](=O)[O-])ccc1NC(=O)CSc1nnc(C)c(C)n1		inconclusive: 28.2 µM [inhibitor, single point]
O=C1Nc2ccccc2C(=O)C1(Cl)Cc1ccccc1 (stereo unspecified)		inconclusive: 25.1 µM [inhibitor, single point]
CCOC(=O)C1=C(c2ccccc2)NC(=S)NC1c1ccc(Cl)c([N+](=O)[O-])c1 (stereo unspecified)		inconclusive: 25.1 µM [inhibitor, single point]
Cc1cccc(-n2c(C)cc(/C=N/NC(N)=S)c2C)c1		inconclusive: 17.8 µM [inhibitor, partial curve]
CSc1nc(NCc2ccccc2)c2c3c(sc2n1)CN(C)CC3		inconclusive: 22.4 µM [inhibitor, single point]
Cc1ccc(-n2nc(CO)c(C(=O)NCc3cccnc3)n2)cc1C	inactive: -5.33%	
CC(=O)N1CCC2(CC1)C/C(=N\NC(=S)Nc1ccccc1C)c1cc(O)ccc1O2		inconclusive: 25.1 µM [inhibitor, partial curve]
Cc1ccccc1NC(=O)Cc1nc(CSc2nnc(C3CCCCC3)n2N)cs1		inconclusive: 39.8 µM [inhibitor, single point]
Oc1ccc2ccccc2c1CNc1cnc2ccccc2c1		inconclusive: 8.91 µM [inhibitor, partial curve]
COc1ccc(-c2cnc(SCC(=O)Nc3nc(C(C)(C)C)cs3)n2Cc2ccco2)cc1		inconclusive: 14.1 µM [inhibitor, partial curve]
O=C1Nc2ccccc2N=C(c2ccccc2)C1Br (stereo unspecified)		inconclusive: 22.4 µM [inhibitor, partial curve, poor fit]
Cc1nc(NC(=O)c2ccc(Cl)cc2)nc2cc3c(cc12)OCO3		inconclusive: 22.4 µM [inhibitor, single point]
N/C(=N\OC(=O)c1ccc(Cl)cc1Cl)c1ccc(Cl)cc1	inactive: -5.26%	
Cc1ccnc(NC(c2cccc(O)c2)c2ccc3ccc(C)nc3c2O)c1 (stereo unspecified)		inconclusive: 12.6 µM [inhibitor, partial curve]
CCN1C(=O)c2ccccc2Sc2ccc(NC(=O)Nc3cc(C)cc(C)c3)cc21		inconclusive: 35.5 µM [activator, single point]
CCOC(=O)c1c(-c2ccccc2)oc2ccc(NS(=O)(=O)c3ccc(C)cc3)cc12	inactive: -1.19%	

Structure (SMILES)	activity, negative = inhibition	Potency
O=C(N/N=C/c1ccccn1)c1cc(-c2cccc3ccccc23)n[nH]1		inconclusive: 3.16 µM [inhibitor, full curve]
CN(N)c1nc2ccccc2nc1C(F)(F)F	inactive: -6.4%	
COc1ccc(C=C2c3ccccc3C(=O)c3ccccc32)c(OC)c1		inconclusive: 20 µM [inhibitor, partial curve]
CCOC(=O)CSc1nc2cc3c(cc2cc1C#N)OCCO3		inconclusive: 4.47 µM [inhibitor, full curve]
CCC1(c2ccc(Cl)cc2)NC(=S)N(c2ccc(C)c(C)c2)N1 (stereo unspecified)		inconclusive: 17.8 µM [inhibitor, partial curve, poor fit]
COc1ccccc1Cn1c(C2CC(=O)N(c3ccccc3OC)C2)nc2ccccc21 (stereo unspecified)	inactive: -12.8%	
Cc1cc([N+](=O)[O-])ccc1N=Nc1c(N)[nH]n(-c2ccccc2)c1=O		active: 15.8 µM
OCCNCCOc1ccccc1-c1ccccc1	inactive: -0.333%	
CC1=C/C(=C/N(C)C)C(=O)O1		inconclusive: 39.8 µM [inhibitor, single point]
COc1ccc(N2CCN(C(=O)CSc3ccccc3N)CC2)cc1		inconclusive: 12.6 µM [inhibitor, partial curve]
Clc1ccc2[nH]c3c(N4CCC5(CC4)OCCO5)ncnc3c2c1		inconclusive: 15.8 µM [inhibitor, partial curve, poor fit]
C=CCNC(=O)CC(=O)N/N=C/c1cccs1	inactive: 2.95%	
O=C(CCN1CCOCC1)N/N=C/c1cc([N+](=O)[O-])ccc1OC(F)F	inactive: -8.26%	
CSc1ccc(/C=N/NC(=O)CNc2ccc3ccccc3c2)cc1		active: 5.01 µM
COc1ccccc1N1CCN(S(=O)(=O)c2cc(C(=O)Nc3ccc(Oc4ccccc4)cc3)ccc2F)CC1	inactive: 1.7%	
COc1cccc(NC(=O)c2cnc(SCC(=O)N3CCCc4ccccc43)n(C)c2=O)c1		inconclusive: 28.2 µM [inhibitor, single point]
O=C(/C=C/c1ccco1)NCc1ccco1		inconclusive: 31.6 µM [inhibitor, single point]
Cn1cc(/C=N\NC(=O)C2COc3ccccc3O2)c2ccccc21 (stereo unspecified)		inconclusive: 14.1 µM [inhibitor, partial curve]
CC(C)CCNC(=O)CCCn1c(=O)c2cccn2c2ccccc21		inconclusive: 7.94 µM [inhibitor, full curve, poor fit]
O=C(Cn1c(=O)n(-c2ccccc2)c(=O)c2c3c(sc21)CCC3)c1ccc(Br)cc1	inactive: 7.43%	
O=C(Nc1nnc(CCN2CCOCC2)s1)c1ccccc1	inactive: -8.01%	
CCOC(=O)c1c(C)oc2ccc(N(C(=O)c3ccncc3)S(=O)(=O)c3ccc(F)cc3C)cc12		inconclusive: 14.1 µM [inhibitor, partial curve]
CC(C)SCC(=O)Nc1ncc2c(n1)-c1ccccc1CC2		inconclusive: 28.2 µM [inhibitor, partial curve]
CCOc1ccc(C(=O)SC2=NCCS2)cc1		inconclusive: 28.2 µM [inhibitor, partial curve]

Structure (SMILES)	activity, negative = inhibition	Potency
Cc1ccc2nc(-c3ccc(Cl)c(NC(=O)COc4ccc([N+](=O)[O-])cc4)c3)oc2c1	inactive: -7.46%	
Cc1c(CN2CCCCC2)c(O)n(CCO)c(=O)c1C#N		inconclusive: 14.1 µM [inhibitor, partial curve]
CNc1ccc(Br)cc(C(=O)/C=C/c2cccc(Cl)c2Cl)c1=O		active: 7.08 µM
COc1ccc(Nc2c3c(nc4c(-c5ccccc5)c(C)nn24)CCC3)cc1		inconclusive: 35.5 µM [inhibitor, single point]
COc1ccc(NC(=O)c2cnc3cc(C)ccn3c2=O)c(OC)c1		inconclusive: 14.1 µM [inhibitor, partial curve]
COc1ccccc1NC(=O)CSc1nnc2c(n1)[nH]c1ccccc12		inconclusive: 17.8 µM [inhibitor, partial curve, poor fit]
O=C(/C=C/c1ccc(Cl)cc1)N1CCN(c2ncccn2)CC1		inconclusive: 28.2 µM [inhibitor, single point]
CC(=O)OCC(=O)[C@@]1(O)CCC2C3C[C@H](C)C4=CC(=O)C=CC4(C)C3C(O)CC21C (stereo partly specified)	inactive: -0.504%	
OCCCNc1nccc(-c2cc(Nc3cccc(Cl)c3)ncn2)n1		inconclusive: 20 µM [activator, partial curve]
CCOC(=O)c1ccc(Nc2c(-c3ccc(N(C)C)cc3)nc3nc[nH]n23)cc1		inconclusive: 20 µM [inhibitor, partial curve]
NC(=O)c1c(/N=C/c2cccnc2)sc2c1CCCC2		inconclusive: 10 µM [inhibitor, partial curve]
Cc1ccc(C)c(CN2CCCN(Cc3ccccc3C)S2(=O)=O)c1	inactive: -4.43%	
CC(C)(C)Cc1nc2ccccc2n1CCc1ccccc1	inactive: -8.09%	
N#C/C(=C/c1ccc(Br)s1)C(=O)NCCc1c[nH]c2ccccc12		inconclusive: 15.8 µM [inhibitor, partial curve]
COc1ccc(-c2nc(SCC(=O)NC3CCCC3)c(-c3ccc(F)cc3)[nH]2)cc1OC		inconclusive: 15.8 µM [inhibitor, partial curve]
Cc1cc(/C=C(\C#N)C(=O)NCCc2c[nH]c3ccccc23)c(C)n1C		inconclusive: 12.6 µM [inhibitor, partial curve]
O=C(COCc1cc(-c2ccco2)on1)Nc1cc(Cl)ccc1O		inconclusive: 14.1 µM [inhibitor, partial curve]
CCOC(=O)C1=NNC(C(=O)c2ccccc2)C1c1ccc(C)cc1 (stereo unspecified)		inconclusive: 17.8 µM [inhibitor, single point]
Cc1cc(N=Nc2ccc(Cl)cc2)cc(CN2CCCC2)c1O		active: 28.2 µM
CC(C)C(=O)n1nc(-c2cccnc2)nc1NCc1ccc(F)cc1		inconclusive: 31.6 µM [inhibitor, single point]
O=C(CN1CCN(c2ccccn2)CC1)Nc1ccc(Cl)c(C(F)(F)F)c1		inconclusive: 7.94 µM [inhibitor, partial curve]
CCCCCCCn1ccc(=N)cc1	inactive: -3.66%	
CCc1ccc(/C=C2/SC(=S)N(CC(=O)Nc3nc4ccccc4s3)C2=O)cc1		inconclusive: 11.2 µM [inhibitor, partial curve]
